Experimental data: the supplement of paper PMC12217912
This is one part of the list. The full chains were built here from the parent and the listed change. Values near 0.05 are background.

B1: TEV protease; numbered along this chain (parent)
chain: MGESLFKGPRDYNPISSSICHLTNESDGHTTSLYGIGFGPFIITNKHLFRRNNGTLVVQSLHGVFKVKDTTTLQQHLVDGRDMIIIRMPKDFPPFPQKLKFREPQREERICLVTTNFQTKSMSSMVSDTSCTFPSGDGIFWKHWIQTKDGQCGSPLVSTRDGFIVGIHSASNFTNTNNYFTSVPKNFMELLTNQEAQQWVSGWRLNADSVLWGGHKVFMVKPEEPFQPVKEATQL

Variants of: B1
Assay: raw area under fraction-flipped curve 0-4 h after induction (AUC4h, not background-subtracted), DNA-recorder readout of cleavage of the substrate (dimensionless); higher = more cleavage of the substrate by the protease variant
Conditions: temperature: 34 °C; time window: 0-4 h after rhamnose induction
Protocol: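 In vivo DNA recorder in E. coli TOP10(DE3) ΔrhaA at 34 °C. Each TEVp single-site mutant (parent TEVp 0) is paired with a single-site variant of the 7-mer TEVs (canonical ENLYFQ|S). The substrate sits between flexible linkers in a Bxb1-sfGFP-TEVs-SsrA fusion, so cleavage stabilises Bxb1 and speeds flipping of a recombination array, read by NGS. The value is the raw area under the fraction-flipped curve over 0-4 h after rhamnose induction (AUC4h), with ≥20 reads per time point. It is not background-subtracted; inactive controls average about 0.047.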
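Further: Bxb1 expression induced with 0.2% (w/v) L-rhamnose at OD600 near 0.5, cultures sampled hourly, flipped fraction per protease–substrate barcode pair counted by paired-end Illumina sequencing.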

| Variant | area with substrate ANLYFQS | area with substrate CNLYFQS | area with substrate DNLYFQS | area with substrate FNLYFQS | area with substrate GNLYFQS | area with substrate HNLYFQS | area with substrate INLYFQS | area with substrate KNLYFQS | area with substrate LNLYFQS | area with substrate MNLYFQS | area with substrate NNLYFQS | area with substrate SNLYFQS | area with substrate TNLYFQS | area with substrate VNLYFQS | area with substrate WNLYFQS | area with substrate PNLYFQS | area with substrate QNLYFQS | area with substrate YNLYFQS | area with substrate RNLYFQS |
| --- | --- | --- | --- | --- | --- | --- | --- | --- | --- | --- | --- | --- | --- | --- | --- | --- | --- | --- | --- |
| MGESLFKGPRDYNPISSSICHLTNESDGHTTSLYGIGFGPFIITNKHLFRRNNGTWVVQSLHGVFKVKDTTTLQQHLVDGRDMIIIRMPKDFPPFPQKLKFREPQREERICLVTTNFQTKSMSSMVSDTSCTFPSGDGIFWKHWIQTKDGQCGSPLVSTRDGFIVGIHSASNFTNTNNYFTSVPKNFMELLTNQEAQQWVSGWRLNADSVLWGGHKVFMVKPEEPFQPVKEATQL [L56W] | 0.0487 | 0.0566 | 0.0566 | 0.0593 | 0.0667 | 0.0518 | 0.063 | 0.0589 | 0.0645 | 0.0616 | 0.052 | 0.0556 | 0.0713 | 0.0414 | 0.0537 | – | – | – | – |
| MGESLFKGPRDYNPISSSICHLTNESDGHTTSLYGIGFGPFIITNKHLFRRNNGTLVVQSGHGVFKVKDTTTLQQHLVDGRDMIIIRMPKDFPPFPQKLKFREPQREERICLVTTNFQTKSMSSMVSDTSCTFPSGDGIFWKHWIQTKDGQCGSPLVSTRDGFIVGIHSASNFTNTNNYFTSVPKNFMELLTNQEAQQWVSGWRLNADSVLWGGHKVFMVKPEEPFQPVKEATQL [L61G] | 0.0598 | 0.0583 | 0.0661 | 0.0717 | 0.0736 | 0.0524 | 0.0639 | 0.0597 | 0.0808 | 0.0618 | – | 0.0708 | – | 0.0767 | 0.0485 | 0.0694 | 0.0712 | 0.0801 | – |
| MGESLFKGPRDYNPISSSICHLTNESDGHTTSLYGIGFGPFIITNKHLFRRNNGTLVVQSLHGCFKVKDTTTLQQHLVDGRDMIIIRMPKDFPPFPQKLKFREPQREERICLVTTNFQTKSMSSMVSDTSCTFPSGDGIFWKHWIQTKDGQCGSPLVSTRDGFIVGIHSASNFTNTNNYFTSVPKNFMELLTNQEAQQWVSGWRLNADSVLWGGHKVFMVKPEEPFQPVKEATQL [V64C] | 0.0634 | 0.0685 | 0.0881 | – | – | 0.0433 | 0.056 | 0.0732 | 0.0523 | 0.0699 | 0.0576 | 0.0685 | 0.0968 | – | 0.0671 | – | – | 0.0653 | – |
| MGESLFKGPRDYNPISSSICHLTNESDGHTTSLYGIGFGPFIITNKHLFRRNNGTLVVQSLHGKFKVKDTTTLQQHLVDGRDMIIIRMPKDFPPFPQKLKFREPQREERICLVTTNFQTKSMSSMVSDTSCTFPSGDGIFWKHWIQTKDGQCGSPLVSTRDGFIVGIHSASNFTNTNNYFTSVPKNFMELLTNQEAQQWVSGWRLNADSVLWGGHKVFMVKPEEPFQPVKEATQL [V64K] | 0.0555 | 0.0765 | 0.0692 | 0.03 | – | 0.0686 | 0.0582 | 0.0599 | 0.0524 | 0.0823 | – | 0.0675 | 0.0601 | 0.0514 | 0.0614 | – | – | 0.0711 | – |
| MGESLFKGPRDYNPISSSICHLTNESDGHTTSLYGIGFGPFIITNKHLFRRNNGTLVVQSLHGVFKVKDTTALQQHLVDGRDMIIIRMPKDFPPFPQKLKFREPQREERICLVTTNFQTKSMSSMVSDTSCTFPSGDGIFWKHWIQTKDGQCGSPLVSTRDGFIVGIHSASNFTNTNNYFTSVPKNFMELLTNQEAQQWVSGWRLNADSVLWGGHKVFMVKPEEPFQPVKEATQL [T72A] | 0.0725 | – | 0.065 | – | – | 0.0626 | 0.0506 | 0.0951 | 0.0596 | – | 0.0728 | 0.0641 | 0.0632 | – | 0.0594 | 0.0411 | – | 0.0643 | – |
| MGESLFKGPRDYNPISSSICHLTNESDGHTTSLYGIGFGPFIITNKHLFRRNNGTLVVQSLHGVFKVKDTTGLQQHLVDGRDMIIIRMPKDFPPFPQKLKFREPQREERICLVTTNFQTKSMSSMVSDTSCTFPSGDGIFWKHWIQTKDGQCGSPLVSTRDGFIVGIHSASNFTNTNNYFTSVPKNFMELLTNQEAQQWVSGWRLNADSVLWGGHKVFMVKPEEPFQPVKEATQL [T72G] | 0.0595 | 0.0729 | 0.0706 | 0.0536 | – | 0.0637 | – | – | 0.0607 | – | 0.0583 | 0.0614 | – | – | 0.0598 | 0.0695 | – | 0.0589 | – |
| MGESLFKGPRDYNPISSSICHLTNESDGHTTSLYGIGFGPFIITNKHLFRRNNGTLVVQSLHGVFKVKDTTVLQQHLVDGRDMIIIRMPKDFPPFPQKLKFREPQREERICLVTTNFQTKSMSSMVSDTSCTFPSGDGIFWKHWIQTKDGQCGSPLVSTRDGFIVGIHSASNFTNTNNYFTSVPKNFMELLTNQEAQQWVSGWRLNADSVLWGGHKVFMVKPEEPFQPVKEATQL [T72V] | 0.0672 | 0.067 | – | 0.0526 | – | 0.062 | – | 0.0598 | 0.061 | 0.0477 | 0.0514 | 0.0828 | 0.0593 | 0.0645 | 0.0549 | 0.0686 | – | 0.0653 | – |
| MGESLFKGPRDYNPISSSICHLTNESDGHTTSLYGIGFGPFIITNKHLFRRNNGTLVVQSLHGVFKVKDTTTLQPHLVDGRDMIIIRMPKDFPPFPQKLKFREPQREERICLVTTNFQTKSMSSMVSDTSCTFPSGDGIFWKHWIQTKDGQCGSPLVSTRDGFIVGIHSASNFTNTNNYFTSVPKNFMELLTNQEAQQWVSGWRLNADSVLWGGHKVFMVKPEEPFQPVKEATQL [Q75P] | 0.022 | 0.0597 | 0.0679 | 0.0606 | 0.0513 | 0.0628 | 0.0562 | 0.0666 | 0.0628 | – | 0.0571 | – | 0.0611 | – | 0.0603 | 0.0491 | – | 0.0569 | 0.055 |
| MGESLFKGPRDYNPISSSICHLTNESDGHTTSLYGIGFGPFIITNKHLFRRNNGTLVVQSLHGVFKVKDTTTLQQHLVDCRDMIIIRMPKDFPPFPQKLKFREPQREERICLVTTNFQTKSMSSMVSDTSCTFPSGDGIFWKHWIQTKDGQCGSPLVSTRDGFIVGIHSASNFTNTNNYFTSVPKNFMELLTNQEAQQWVSGWRLNADSVLWGGHKVFMVKPEEPFQPVKEATQL [G80C] | 0.0647 | – | 0.0935 | 0.0654 | 0.0578 | 0.0709 | 0.0703 | – | 0.0753 | 0.0623 | 0.048 | 0.0629 | 0.0713 | – | 0.0644 | 0.0562 | 0.066 | 0.0668 | – |
